Article PMC4336329 (PLoS ONE, 2015)
In all, about 310,000 compounds went through this assay and about 2,200 (0.71%) showed an effect of 50% or more. The effect is printed as a negative number. Some of the results follow.

molecular target: human ether-à-go-go-related gene (hERG) potassium channel (human, UniProt Q12809); assay: primary screen, population patch clamp on CHO cells stably expressing hERG
Sequence (Q12809 whole entry, looked up): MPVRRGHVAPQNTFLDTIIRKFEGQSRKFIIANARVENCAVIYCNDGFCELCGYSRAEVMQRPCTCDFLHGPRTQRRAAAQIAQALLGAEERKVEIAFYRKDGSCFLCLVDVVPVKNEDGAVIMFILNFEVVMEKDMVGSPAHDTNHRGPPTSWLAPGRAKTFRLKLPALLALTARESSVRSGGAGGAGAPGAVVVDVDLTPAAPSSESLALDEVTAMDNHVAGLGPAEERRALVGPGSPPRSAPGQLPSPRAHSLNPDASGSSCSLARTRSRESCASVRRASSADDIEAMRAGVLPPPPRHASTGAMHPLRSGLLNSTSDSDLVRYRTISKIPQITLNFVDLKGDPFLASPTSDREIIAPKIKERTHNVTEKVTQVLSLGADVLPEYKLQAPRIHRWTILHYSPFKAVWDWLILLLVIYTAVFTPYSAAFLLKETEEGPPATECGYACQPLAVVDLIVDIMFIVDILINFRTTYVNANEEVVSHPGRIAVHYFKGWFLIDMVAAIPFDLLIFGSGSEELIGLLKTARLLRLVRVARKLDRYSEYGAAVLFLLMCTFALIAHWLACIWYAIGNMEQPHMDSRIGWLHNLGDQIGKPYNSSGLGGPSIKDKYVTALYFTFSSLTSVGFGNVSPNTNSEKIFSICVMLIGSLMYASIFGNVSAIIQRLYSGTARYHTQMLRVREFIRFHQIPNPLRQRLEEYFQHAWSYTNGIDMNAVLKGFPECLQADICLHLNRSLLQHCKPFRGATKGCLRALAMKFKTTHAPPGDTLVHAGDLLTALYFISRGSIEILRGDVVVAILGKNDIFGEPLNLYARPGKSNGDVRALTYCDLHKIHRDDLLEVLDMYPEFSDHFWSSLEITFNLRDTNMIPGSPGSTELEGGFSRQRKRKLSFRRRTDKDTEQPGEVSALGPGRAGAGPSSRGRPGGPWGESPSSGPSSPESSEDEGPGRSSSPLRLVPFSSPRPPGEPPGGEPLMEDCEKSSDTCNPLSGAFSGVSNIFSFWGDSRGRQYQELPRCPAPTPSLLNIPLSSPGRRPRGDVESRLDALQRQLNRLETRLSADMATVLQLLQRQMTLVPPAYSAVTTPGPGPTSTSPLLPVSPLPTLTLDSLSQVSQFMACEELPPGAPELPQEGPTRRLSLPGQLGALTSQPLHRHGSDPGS

SMILES	hERG current change (%, negative = inhibition) at 1uM [%]
COc1ccc(CNCC(O)COCc2cccs2)cc1 (centres unmarked)	-19.5
O=C(c1cc(-c2ccccc2)nn1-c1ccccc1)N1CCN(S(=O)(=O)c2cccc(F)c2)CC1	14.6
COC(=O)C/C(C)=N/Nc1ccc(S(=O)(=O)N2CCCC2)cc1[N+](=O)[O-]	15.3
O=C(Nc1ccc(Cl)cc1)OCc1ccccn1	10.9
Cn1nnnc1Sc1ncnc2scc(-c3ccccc3C(F)(F)F)c12	10
Cc1c(C)c2cc3c4c(oc3c(C)c2oc1=O)CCCC4	-0.48
Cc1ccccc1NC1=NC2(CCCC2)N=C(N)N1	10.7
COc1cc(NS(=O)(=O)c2ccc(NC(C)=O)cc2)cc(OC)c1	9.87
O=C(OCC(=O)N1CCCc2ccccc21)c1ccc(Cl)nc1	7.33
Cc1cccc(C(=O)N2CCCN(C(=O)c3cccc(C)c3)CC2)c1	6.97
C/C(=N\NC(=O)CCc1c(C)n[nH]c1C)c1ccc([N+](=O)[O-])cc1	3.91
COc1ccc(S(=O)(=O)NCC(c2ccc3c(c2)OCO3)N2CCOCC2)cc1 (centres unmarked)	3.61
CCOC(=O)N1CCc2c(sc(NC(=O)CCS(=O)(=O)c3ccccc3)c2C(N)=O)C1	6.71
O=C1[C@@H]2Cc3c([nH]c4ccccc34)CN2C(=O)CN1CCCCCO	10.7
O=C(CCCl)N1CCCC2(CCCCC2)C1	13.8
CCOC(=O)N1CC=C2C(C#N)=C(N)C(C#N)(C#N)[C@H](c3ccccc3OCC)[C@H]2C1	7.44
O=C(Nc1ccccc1)c1cccc(S(=O)(=O)N2CCCCC2)c1	17.5
CCCNC(=O)C1CN(C(=O)c2nn(Cc3ccccc3)c(=O)c3ccccc23)c2ccccc2O1 (centres unmarked)	6.6
CC(O)CNCc1cccc2ccccc12.Cl (centres unmarked)	11.2

SMILES	hERG current change (%, negative = inhibition) at 1uM [%]
CC1(C(=O)Nc2cccc(S(=O)(=O)N3CCOCC3)c2)Cc2ccccc2C(=O)O1 (centres unmarked)	12.2
CCOc1ccc(NC(=O)CN2CCN(C(=O)c3ccco3)CC2)cc1S(=O)(=O)N1CCCC1	-4.9
O=C(CSc1cccc[n+]1[O-])N1CCCc2ccccc21	9.37
CNC(=O)C1(CC(C)C)C=CCN1C(C)=O (centres unmarked)	13
CC1CCC(NC(=O)CC(C)(C)Cc2nc3ccccc3c(=O)[nH]2)CC1 (centres unmarked)	8.72
CC(=O)Nc1ccc(N(C(=O)CNC(=O)c2ccco2)C(C(=O)NCc2ccco2)c2ccccc2F)cc1 (centres unmarked)	18.3
COc1ccc(Cl)cc1NC(=O)CN1CCN(S(=O)(=O)N2CCOCC2)CC1	-19.4
CCOC(=O)c1cc(C)sc1/N=C/C1=C(O)CCCC1=O	3.64
O=C(Nc1ccc(Cl)cc1)c1ccc2nsnc2c1	18.3
Cc1ccc(C)c(N2N=C(C(=O)Nc3cccnc3)CCC2=O)c1	3.96
CCOC(=O)c1c(NC(=S)Nc2ccc(OC)cc2)sc2c1CCCCC2	22.1
CCOC(=O)Oc1ccc2c(=O)c(Oc3cc(C)cc(C)c3)coc2c1	-7.75
Cc1cccc(N2CCN(C(=O)CN(C)S(=O)(=O)c3ccc4c(c3)CCC(=O)N4)CC2)c1C	-13
COC(=O)C1CCN(C(=O)COC(=O)[C@@H]2CC(O)CN2S(=O)(=O)c2ccc3c(c2)OCCO3)CC1 (some centres unmarked)	7.74
O=C1c2ccccc2C(=O)c2[nH]c(=O)[nH]c21	5.6
CC1CCN(C(=O)Cn2cc(SCC(=O)NCC3CCCO3)c3ccccc32)CC1 (centres unmarked)	5.1
CCOC(=O)C1CCN(c2cc3c(cc2NC(=O)c2cc(OC)ccc2Br)n(C)c(=O)n3C)CC1	18.8
Cc1cc(C)c(-c2cc(C(F)(F)F)no2)c(=O)[nH]1	12.2
CC(C)CNC(=O)COC(=O)c1ccc(Cl)c(S(N)(=O)=O)c1	8.61

SMILES	hERG current change (%, negative = inhibition) at 1uM [%]
Cn1cc(Br)c(C(=O)NC(=S)Nc2ccc(S(N)(=O)=O)cc2)n1	11.8
CCCCCCCCc1c(O)nc(-n2[nH]c(C)c(CCO)c2=O)[nH]c1=O	11.8
Cc1cc(C)cc(NC(=O)CN2CCN(CCN=CC3=C(O)CC(c4ccc(Cl)cc4)CC3=O)CC2)c1 (centres unmarked)	-1.31
Cc1ccccc1NC(=S)N(Cc1cccnc1)Cc1ccccc1Cl	4.47
Cc1ccc(C(=O)NC(=S)NNS(=O)(=O)c2ccccc2)cc1	13.5
CC(=NCc1ccc(F)cc1)c1c(O)n(C)c(=O)n(C)c1=O	-6.74
COc1ccc(CNC(=S)Nc2ccccc2)cc1	7.93
Cc1nn(CC(=O)O)c2ccccc12	18.5
CCC(C)NS(=O)(=O)c1ccc(NC(=O)C2CCN(C(=O)c3ccco3)CC2)cc1 (centres unmarked)	8
Cc1ccc(OCCC(=O)NCCc2ccc(S(N)(=O)=O)cc2)cc1	11.9
CCOC(=O)C1CCN(C(=O)Cn2cc3c(n2)CCC(C)C3)CC1 (centres unmarked)	6.1
c1cnc(Oc2ccc3oc4ccccc4c3c2)nc1	7.27
CCC/C=C1/CCCOC(C(=O)NCc2ccccc2)(C(F)(F)F)C1 (centres unmarked)	12
CCN(CC(=O)Nc1ccc(OC)cc1)C(=O)c1ccc(=O)n(Cc2ccccc2)n1	-4.32
CC1=C(C(=O)Nc2ccc(C)cc2C)C(c2cccs2)NC(=S)N1 (centres unmarked)	-3.45
Cl.O=C(CN1CCN(C2CCCCC2)CC1)Nc1ccc(Br)cc1	-45.6
COc1ccc(-c2nnc(SCc3ccc(C(=O)O)cc3)n2N)cc1	0.42
O=C(COC(=O)c1ccc(Cl)nc1)Nc1ccc2c(c1)OCO2	12.4
